Assay results published in PubChem BioAssay AID504333 (National Center for Advancing Translational Sciences (NCATS), 2011).
In all, about 360,000 compounds went through this assay and about 16,000 (4.4%) were called active. Inconclusive means that the source gave no clear call. Such entries were picked first, then a sample of the others. The call rests on the fitted dose curve; in most records, active means well fitted inhibition curve with a large enough effect; inconclusive means small, poorly fitted or top-dose-only effect; inactive means no such curve, though single readings can be large or run the other way. Where the call is inconclusive, the potency comes from a doubtful curve fit.

Target: Bromodomain adjacent to zinc finger domain protein 2B (Homo sapiens) (UniProt Q9UIF8)
Sequence of UniProt Q9UIF8 (Q9UIF8 whole entry, looked up, the tested form may be a part): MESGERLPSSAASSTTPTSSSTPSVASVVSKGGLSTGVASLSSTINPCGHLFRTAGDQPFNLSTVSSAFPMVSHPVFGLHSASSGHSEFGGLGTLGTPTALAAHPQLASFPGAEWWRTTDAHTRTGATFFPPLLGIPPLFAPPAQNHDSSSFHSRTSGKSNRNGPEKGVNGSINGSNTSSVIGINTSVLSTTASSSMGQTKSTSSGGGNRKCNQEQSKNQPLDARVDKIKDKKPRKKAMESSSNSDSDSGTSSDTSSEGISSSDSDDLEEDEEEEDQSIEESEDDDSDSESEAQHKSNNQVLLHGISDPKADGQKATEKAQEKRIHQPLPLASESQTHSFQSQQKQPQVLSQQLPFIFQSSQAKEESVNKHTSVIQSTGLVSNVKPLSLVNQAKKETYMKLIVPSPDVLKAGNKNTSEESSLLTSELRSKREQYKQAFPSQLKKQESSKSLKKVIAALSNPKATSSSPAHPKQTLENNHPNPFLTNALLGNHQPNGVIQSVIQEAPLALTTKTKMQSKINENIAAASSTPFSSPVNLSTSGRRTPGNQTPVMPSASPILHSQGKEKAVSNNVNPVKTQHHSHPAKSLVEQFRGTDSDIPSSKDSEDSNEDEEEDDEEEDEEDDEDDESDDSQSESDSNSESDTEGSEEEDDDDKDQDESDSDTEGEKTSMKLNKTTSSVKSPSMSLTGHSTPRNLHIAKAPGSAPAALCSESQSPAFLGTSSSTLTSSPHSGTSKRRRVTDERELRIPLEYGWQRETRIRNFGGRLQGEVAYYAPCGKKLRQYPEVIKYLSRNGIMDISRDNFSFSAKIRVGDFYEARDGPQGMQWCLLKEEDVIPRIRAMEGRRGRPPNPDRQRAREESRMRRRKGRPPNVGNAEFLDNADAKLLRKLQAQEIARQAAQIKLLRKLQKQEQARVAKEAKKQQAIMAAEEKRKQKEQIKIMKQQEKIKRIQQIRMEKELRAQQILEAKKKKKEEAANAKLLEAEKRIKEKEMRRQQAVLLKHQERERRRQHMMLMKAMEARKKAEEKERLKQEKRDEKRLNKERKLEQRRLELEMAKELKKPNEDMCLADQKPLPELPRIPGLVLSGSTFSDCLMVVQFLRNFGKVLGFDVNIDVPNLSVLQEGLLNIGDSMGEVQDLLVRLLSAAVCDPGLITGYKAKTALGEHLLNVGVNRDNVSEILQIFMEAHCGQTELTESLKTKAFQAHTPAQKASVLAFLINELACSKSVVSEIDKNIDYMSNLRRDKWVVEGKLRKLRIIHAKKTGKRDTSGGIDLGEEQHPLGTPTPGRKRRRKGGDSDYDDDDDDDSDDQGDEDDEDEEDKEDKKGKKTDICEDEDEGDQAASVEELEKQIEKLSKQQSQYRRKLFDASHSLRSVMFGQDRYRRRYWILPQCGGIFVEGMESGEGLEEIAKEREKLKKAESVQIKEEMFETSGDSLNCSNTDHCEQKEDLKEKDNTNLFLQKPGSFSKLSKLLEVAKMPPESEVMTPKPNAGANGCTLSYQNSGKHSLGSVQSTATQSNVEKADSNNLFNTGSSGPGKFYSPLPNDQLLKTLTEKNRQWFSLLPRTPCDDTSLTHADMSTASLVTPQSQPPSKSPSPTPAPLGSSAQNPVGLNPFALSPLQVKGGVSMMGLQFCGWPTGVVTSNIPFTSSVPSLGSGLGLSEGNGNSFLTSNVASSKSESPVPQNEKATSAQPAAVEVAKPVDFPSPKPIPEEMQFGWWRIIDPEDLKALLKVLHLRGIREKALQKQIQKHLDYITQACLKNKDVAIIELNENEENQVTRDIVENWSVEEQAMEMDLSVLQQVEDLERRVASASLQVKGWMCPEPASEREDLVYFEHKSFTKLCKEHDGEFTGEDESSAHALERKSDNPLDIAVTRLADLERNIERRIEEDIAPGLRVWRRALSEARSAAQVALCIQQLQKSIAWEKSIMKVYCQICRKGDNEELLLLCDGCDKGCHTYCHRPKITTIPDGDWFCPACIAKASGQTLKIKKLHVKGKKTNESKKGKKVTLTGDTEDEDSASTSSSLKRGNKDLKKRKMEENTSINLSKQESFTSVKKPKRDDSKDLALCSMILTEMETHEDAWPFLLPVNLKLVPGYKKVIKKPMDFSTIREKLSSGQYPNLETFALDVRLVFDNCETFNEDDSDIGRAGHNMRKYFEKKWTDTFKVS
Experiment: qHTS Assay for Inhibitors of BAZ2B; further: nearly all actives have a fitted effect of over 60% in size
Conditions: AlphaScreen BAZ2B-H3K14Ac peptide displacement; activity change, negative = inhibition: at 114 µM (top of the series) unless noted
How it was run: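 BAZ2B (50 nM) with biotin-H3(5-23)K14Ac peptide (50 nM) in PBS pH 7.4, 0.01% Tween-20, preformed 30 min, then compound 30 min at room temperature; top concentration 110uM. AlphaScreen streptavidin donor/nickel chelate acceptor beads (10 ug/mL final), 20 min dark, signal read.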
On the % scale 0 is the no-effect control and ±100 the full control effect; potency means the concentration at half of the fitted maximal effect; tags describe the fitted curve by direction and shape.

Row | SMILES | Potency | activity change, negative = inhibition
1 | CN(C(=O)c1ccc(N2CCCCC2)c([N+](=O)[O-])c1)C1(C)CCS(=O)(=O)C1 (stereo not drawn) | inconclusive: 79.4 µM [inhibitor, single point] | –
2 | Cc1ccc(SCc2cc(=O)c3c(=O)n(-c4ccccc4)[nH]c3[nH]2)cc1 | active: 28.2 µM | –
3 | CS(=O)(=O)c1nc(S(=O)(=O)c2ccc(Cl)cc2)c(NCCCN2CCCC2=O)s1 | – | inactive: -13.5%
4 | S=c1[nH]nc(CSc2nc3ccccc3s2)o1 | inconclusive: 79.4 µM [inhibitor, single point] | –
5 | COc1ccc(-c2nnc(SCC(=O)Nc3ccc(C(=O)O)cc3)n2-c2ccc(Cl)cc2)cc1 | inconclusive: 89.1 µM [inhibitor, single point] | –
6 | O=C(Cc1ccc(Br)cc1)NC1CCCc2ccccc21 (stereo not drawn) | – | inactive: -0.704%
7 | Cn1nccc1NC(=O)Nc1cccc(Cl)c1Cl | inconclusive: 89.1 µM [inhibitor, single point] | –
8 | CC(C)(C)c1ccc(C(=O)C=[N+]=[N-])cc1 | inconclusive: 100 µM [inhibitor, single point] | –
9 | Cc1ccc(C)c(Cn2c(C3CC(=O)N(c4ccccc4C)C3)nc3ccccc32)c1 (stereo not drawn) | inconclusive: 89.1 µM [inhibitor, single point] | –
10 | CCCC1Nc2ccc(C(=O)O)cc2C2C=CCC12 (stereo not drawn) | active: 44.7 µM | –
11 | O=C(NC(=S)Nc1cccc(S(=O)(=O)NC2=NCCC2)c1)c1cc(-c2ccco2)nc2ccccc12 | inconclusive: 70.8 µM [inhibitor, single point] | –
12 | CCc1nc(Oc2cccc(F)c2)c2oc3ccccc3c2n1 | – | inactive: 231%
13 | COc1cc(C)cc2oc(=O)c(CC(=O)NCc3cccc(Cl)c3)c(C)c12 | – | inactive: -10.6%
14 | CCN(CC)c1ccc(NS(=O)(=O)c2cc3[nH]c(=O)c(=O)[nH]c3cc2C)c(C)c1 | active: 50.1 µM | –
15 | CC(Oc1ccc(F)cc1)C(=O)Nc1cccc(-c2nn[nH]n2)c1 (stereo not drawn) | – | inactive: -17.1%
16 | O=C(NCc1ccccn1)/C(=N/O)c1ccccc1 | – | inactive: -0.832%
17 | O=C(c1ccc(COc2ccc(Cl)cc2)o1)N1CCN(Cc2ccc3c(c2)OCO3)CC1 | inconclusive: 56.2 µM [inhibitor, single point] | –
18 | O=C(O)c1c2c(nc3ccccc13)/C(=C/c1ccc(O)cc1)CC2 | active: 39.8 µM | –
19 | O=C1C(Br)=Cc2cccc3cccc1c23 | active: 25.1 µM | –

Row | SMILES | Potency | activity change, negative = inhibition
20 | COc1ccc2cc(C3CC(c4ccco4)=NN3S(C)(=O)=O)c(Cl)nc2c1 (stereo not drawn) | inconclusive: 79.4 µM [inhibitor, single point] | –
21 | COc1ccc2nc(C)cc(N/N=C/c3cccc(OC)c3O)c2c1 | active: 44.7 µM | –
22 | COc1cccc(/C=C2/SC(=S)N(CC(=O)NNC(=O)c3ccccc3O)C2=O)c1 | inconclusive: 79.4 µM [inhibitor, single point] | –
23 | O=C(C1=NN[C@@H]2C(=O)N(c3cccc(F)c3)C(=O)[C@H]12)c1cnccn1 | active: 44.7 µM | –
24 | Cc1nc(NCc2ccccn2)c2c3c(sc2n1)CCCC3 | inconclusive: 70.8 µM [inhibitor, single point] | –
25 | CCCCNc1nc(Nc2ccc(C)c(Cl)c2)c2cnn(C)c2n1 | – | inactive: -11.7%
26 | O=C(NCc1ccccn1)c1cc2ccccc2oc1=O | inconclusive: 89.1 µM [inhibitor, single point] | –
27 | CCOC(=O)c1c(C)[nH]c(C)c1S(=O)(=O)N1CCCC(C(=O)N2CCN(c3ccccc3)CC2)C1 (stereo not drawn) | inconclusive: 89.1 µM [inhibitor, single point] | –
28 | O=C(COC(=O)/C=C/c1ccccc1[N+](=O)[O-])NC(=O)NC1CCCC1 | – | inactive: -31.3%
29 | O=C(Nc1ccc(S(=O)(=O)NCc2ccco2)cc1)c1cccc(F)c1 | – | inactive: -29.1%
30 | Cc1nn(-c2ccccc2)c(C)c1/C=N/NC(=O)c1cc(-c2ccccc2)n[nH]1 | – | inactive: 2.2%
31 | O=C1/C(=C/c2ccccc2[N+](=O)[O-])COc2ccccc21 | inconclusive: 39.8 µM [inhibitor, partial curve] | –
32 | c1ccc(-c2n[nH]c3c2CCC3)cc1 | – | inactive: -21.6%
33 | COCCCNc1oc(-c2ccc(COc3ccc(Cl)cc3)o2)nc1C#N | inconclusive: 10 µM [inhibitor, full curve] | –
34 | CN1C(=O)C(O)(CC(=O)/C=C/C=C/c2ccccc2)c2ccccc21 (stereo not drawn) | inconclusive: 89.1 µM [inhibitor, single point] | –
35 | CC(/C=C1\SC(=S)N(CCCC(=O)Nc2ccc(C(=O)O)c(O)c2)C1=O)=C\c1ccccc1 | inconclusive: 0.631 µM [inhibitor, full curve, poor fit] | –
36 | Cc1cccc(C(=O)NCc2ccco2)c1 | inconclusive: 89.1 µM [inhibitor, single point] | –
37 | COc1cccc(-n2cc3c(=O)n(C)c(=O)n(C)c3c2)c1 | inconclusive: 79.4 µM [inhibitor, single point] | –
38 | COc1ccc(C(=O)NCC(c2ccc(N(C)C)cc2)N2CCc3ccccc32)c(OC)c1 (stereo not drawn) | – | inactive: -12.9%
